Source: PubChem BioAssay (Tox21)
“And” between values parts separate entries of the source, which are not always exact repeats. Equal entries are not always repeated. The shares of active, inactive and inconclusive entries below differ from those in the screen. Where the call is inconclusive, the potency comes from a doubtful curve fit. The source holds several records for some structures; these can differ, active in one and inactive in another. The source made the active and inactive calls. Unless noted, the call rests on the fitted dose curve; in most records, active means well fitted curve in the direction sought with a large enough effect in the repeat runs; inconclusive means weak or mixed curves; inactive means no such curve, though single readings can be large; an effect the other way counts as inactive or inconclusive.

Experiments:
[1] = target: Androgen receptor (Homo sapiens) (UniProt P10275); assay: qHTS assay to identify small molecule antagonists of the androgen receptor (AR) signaling pathway using the MDA cell line in the presence of 0.5 nM R1881 (AID 1259243); further: nearly all actives have a fitted effect of over 50% in size
Sequence of UniProt P10275 (P10275 whole entry, looked up): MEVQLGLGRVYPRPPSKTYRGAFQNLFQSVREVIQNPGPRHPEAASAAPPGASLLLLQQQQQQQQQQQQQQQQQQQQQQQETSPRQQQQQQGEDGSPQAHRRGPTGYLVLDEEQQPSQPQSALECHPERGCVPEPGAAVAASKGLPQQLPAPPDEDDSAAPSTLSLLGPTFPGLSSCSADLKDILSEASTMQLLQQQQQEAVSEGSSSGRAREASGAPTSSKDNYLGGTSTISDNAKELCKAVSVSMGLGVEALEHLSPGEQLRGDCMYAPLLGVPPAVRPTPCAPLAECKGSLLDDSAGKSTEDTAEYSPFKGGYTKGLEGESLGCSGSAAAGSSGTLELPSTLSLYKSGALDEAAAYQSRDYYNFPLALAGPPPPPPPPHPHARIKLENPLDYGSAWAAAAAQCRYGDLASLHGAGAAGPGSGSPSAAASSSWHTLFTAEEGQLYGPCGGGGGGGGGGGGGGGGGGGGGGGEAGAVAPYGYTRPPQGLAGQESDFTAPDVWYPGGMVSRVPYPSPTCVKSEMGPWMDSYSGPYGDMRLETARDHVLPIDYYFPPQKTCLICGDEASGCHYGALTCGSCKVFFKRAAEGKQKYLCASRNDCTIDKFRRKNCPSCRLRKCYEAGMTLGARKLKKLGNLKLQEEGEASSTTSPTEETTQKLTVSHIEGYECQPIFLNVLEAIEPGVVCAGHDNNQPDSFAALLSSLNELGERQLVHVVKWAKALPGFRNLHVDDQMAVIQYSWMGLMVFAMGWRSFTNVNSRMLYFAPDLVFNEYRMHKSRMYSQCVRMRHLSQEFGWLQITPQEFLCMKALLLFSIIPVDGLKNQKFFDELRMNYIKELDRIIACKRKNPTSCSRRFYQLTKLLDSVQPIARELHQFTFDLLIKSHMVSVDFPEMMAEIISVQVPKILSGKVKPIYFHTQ
In short: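 With R1881 held at 0.5 nM (final), compound effects on MMTV-luciferase expression in MDA-kb2 cells were scored by luminescence after a 16 hr, 37C incubation.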

[2] = qHTS assay to identify small molecule antagonists of the androgen receptor (AR) signaling pathway using the MDA cell line in the presence of 0.5 nM R1881 - cell viability counter screen (AID 1259242); further: nearly all actives have a fitted effect of over 45% in size
In short: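 Concentration-response screen of compounds for toxicity in MDA-kb2 reporter cells: 16 hr at 37C with 0.5 nM R1881, endpoint live-cell protease fluorescence measured in the reporter wells.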

[3] = qHTS assay to identify small molecule antagonists of the sonic hedgehog signaling (Shh) pathway (AID 1259369; calls by dose curve; further: nearly all actives have a fitted effect of over 45% in size)
In short: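 NIH/3T3 stable Gli1-Luc clone, 2,000 cells/well, 4hr settle; cpd + conditioned medium 24hr; Luc reagent 30min RT; luminescence.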

[4] = target: Estrogen receptor (Homo sapiens) (UniProt P03372); assay: qHTS assay to identify small molecule antagonists of the estrogen receptor alpha (ER-alpha) signaling pathway using the BG1 cell line in the presence of 0.1 nM 17-beta-estradiol (AID 1259244); further: nearly all actives have a fitted effect of over 50% in size
Sequence of UniProt P03372 (P03372 whole entry, looked up): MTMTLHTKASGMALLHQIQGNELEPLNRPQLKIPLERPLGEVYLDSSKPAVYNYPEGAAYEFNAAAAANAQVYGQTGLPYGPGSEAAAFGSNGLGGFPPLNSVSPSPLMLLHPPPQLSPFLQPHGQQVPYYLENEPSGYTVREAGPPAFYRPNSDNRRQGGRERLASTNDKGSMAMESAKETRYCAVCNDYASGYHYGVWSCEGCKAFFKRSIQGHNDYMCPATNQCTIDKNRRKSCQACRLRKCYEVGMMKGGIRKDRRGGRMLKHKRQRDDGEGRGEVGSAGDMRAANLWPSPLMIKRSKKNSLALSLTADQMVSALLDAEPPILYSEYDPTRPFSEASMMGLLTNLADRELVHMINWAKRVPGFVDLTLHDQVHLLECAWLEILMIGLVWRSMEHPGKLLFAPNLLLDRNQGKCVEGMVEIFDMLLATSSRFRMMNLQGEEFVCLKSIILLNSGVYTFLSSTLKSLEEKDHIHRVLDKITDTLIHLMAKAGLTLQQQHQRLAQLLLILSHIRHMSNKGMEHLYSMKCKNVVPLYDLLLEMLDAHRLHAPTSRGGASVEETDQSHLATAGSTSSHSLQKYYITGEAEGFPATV
In short: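 Compounds were tested against 0.1 nM (final) 17beta-estradiol in VM7Luc4E2 cells, which express full-length ER-alpha and an ERE-luciferase reporter; luminescence was recorded following 22 h exposure.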

[5] = qHTS assay to identify small molecule HDAC inhibitors (AID 1259364);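 further: wild-type HCT-116 cells with endogenous class I/II HDAC activity; nearly all actives have a fitted effect of over 45% in size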
In short: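 Screening used wild-type human colon HCT-116 cells incubated overnight, dosed with compounds for 2 hours, and assayed with a homogeneous luminogenic HDAC I/II reagent for 30 minutes at room temperature.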

[6] = qHTS assay to identify small molecule agonists of the sonic hedgehog signaling (Shh) pathway - cell viability counter screen (AID 1259366); further: nearly all actives have a fitted effect of over 50% in size
In short: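 Cytotoxicity counter screen: CellTiter-Fluor reagent added after 23 h compound exposure, then 1 h at 37C and fluorescence read. Cells were 3T3 Gli1-Luc, seeded 2,000 per well and dosed 4 h post-plating.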

[7] = qHTS assay to identify small molecule antagonists of the sonic hedgehog signaling (Shh) pathway - cell viability counter screen (AID 1259367); further: nearly all actives have a fitted effect of over 55% in size
In short: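 Conditioned medium drove Shh signaling in 3T3 Gli1-Luc cells exposed to compounds at 37C and 5% CO2. Viability was determined from CellTiter-Fluor fluorescence, with reagent incubated 1 hr after 23 hr of treatment.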

[8] = qHTS assay to identify small molecule agonists of the sonic hedgehog signaling (Shh) pathway (AID 1259368; calls by dose curve; further: nearly all actives have a fitted effect of over 15% in size)
In short: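 Hedgehog pathway agonism scored by increased firefly luciferase luminescence in 3T3Gli1-Luc cells treated 24 hr at 37 C; detection used a 30 min room-temperature reagent incubation.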
Potency means the concentration at half of the fitted maximal effect; tags describe the fitted curve by direction and shape.

## CC(C)NNC(=O)c1ccncc1
[1]
  Potency: inactive

## Cc1cc(=O)c2c(O)c3c(O)cc(=O)c4c3c3c(cc(O)c1c23)C(C)(C)C=4O
[2]
  Potency: inconclusive: 1.83 µM [cytotoxic, full curve]
[3]
  Potency: inconclusive: 14.6 µM [inhibitor, single point]

## O=C(OCC(O)CO)c1ccccc1Nc1ccnc2c(C(F)(F)F)cccc12 (stereo not given)
[2]
  Potency: inactive
[3]
  Potency: inconclusive: 8.41 µM [inhibitor, full curve]

## CCCCN(CCCC)CCC(O)c1cc2c(Cl)cc(Cl)cc2c2cc(C(F)(F)F)ccc12 (stereo not given)
[2]
  Potency: inconclusive: 23.7 µM [cytotoxic, partial curve, poor fit]
[3]
  Potency: inconclusive: 23.7 µM [inhibitor]

## Cc1ccc(N)cc1O
[1]
  Potency: inconclusive: 68.6 µM [inhibitor, partial curve, poor fit]
[4]
  Potency: inconclusive: 7.7 µM [inhibitor, full curve]
[5]
  Potency: inconclusive: 68.6 µM [inhibitor, partial curve]
[6]
  Potency: inactive
[3]
  Potency: inconclusive: 48.6 µM [inhibitor, partial curve]

## Nc1c(N=Nc2ccc(-c3ccc(N=Nc4cc(S(=O)(=O)O)c5ccccc5c4N)cc3)cc2)cc(S(=O)(=O)O)c2ccccc12
[2]
  Potency: active: 27.3 µM
[3]
  Potency: inactive

## O=[N+]([O-])c1ccc(O)c2ncccc12
[2]
  Potency: active: 9.44 µM
[7]
  Potency: inconclusive: 750 nM [cytotoxic, full curve]

## COc1ccc2cc(S(=O)(=O)N[C@H](CC(=O)N[C@H](Cc3ccc(CN4[C@H](C)CCC[C@@H]4C)cc3)C(=O)N(C)C(C)C)c3ccc4c(c3)OCO4)ccc2c1
[2]
  Potency: active: 46 µM
[3]
  Potency: inactive

## Cn1cnc([N+](=O)[O-])c1Sc1ncnc2nc[nH]c12
[2]
  Potency: inconclusive: 60.8 µM [cytotoxic, partial curve, poor fit]
[6]
  Potency: inconclusive: 13.6 µM [cytotoxic, full curve, poor fit] and inconclusive: 29.8 µM [cytotoxic, partial curve, poor fit]
[7]
  Potency: active: 19.2 µM and inconclusive: 29.8 µM [cytotoxic, partial curve, poor fit]
[3]
  Potency: inconclusive: 21.1 µM [inhibitor, partial curve, poor fit]

## CCC(C)OC(C)CC (stereo not given)
[1]
  Potency: inconclusive: 7.12 µM [inhibitor, single point]

## CC(=O)O[C@]1(C(C)=O)CC[C@H]2[C@@H]3C=C(Cl)C4=CC(=O)CC[C@]4(C)[C@H]3CC[C@@]21C
[2]
  Potency: inactive
[3]
  Potency: inconclusive: 10.8 µM [inhibitor, single point]

## CN(C)CCCN1c2ccccc2Sc2ccc(C(F)(F)F)cc21
[2]
  Potency: inconclusive: 29.8 µM [cytotoxic, single point]
[7]
  Potency: inconclusive: 21100 nM [cytotoxic, partial curve, poor fit]

## CCN(CC)CCNC(=O)c1c(C)[nH]c(/C=C2\C(=O)Nc3ccc(F)cc32)c1C
[2]
  Potency: active: 29.8 µM
[6]
  Potency: active: 5.96 µM
[3]
  Potency: active: 3.35 µM

## O=[Se](O)O
[2]
  Potency: active: 13.7 µM
[3]
  Potency: inactive

## CCCCC(CC)CN (stereo not given)
[1]
  Potency: inactive

## COc1ccc(C(=O)NCc2ccc(OCCN(C)C)cc2)cc1OC
[2]
  Potency: inactive
[3]
  Potency: inactive

## C1CN(SSN2CCOCC2)CCO1
[2]
  Potency: inconclusive: 67.9 µM [cytotoxic, single point]
[7]
  Potency: active: 48.1 µM and active: 61.1 µM

## CN1CCc2cccc3c2[C@H]1Cc1ccc(O)c(O)c1-3
[2]
  Potency: inconclusive: 26.6 µM [cytotoxic, single point]
[6]
  Potency: inconclusive: 33.5 µM [cytotoxic, single point]
[8]
  Potency: inconclusive: 27.6 µM [activator, single point]
[3]
  Potency: inconclusive: 34.7 µM [inhibitor, single point]

## CCOC(=O)Cn1cccc1-c1nc(-c2ccc(OC)cc2)c(-c2ccc(OC)cc2)s1
[1]
  Potency: inconclusive: 18.8 µM [inhibitor, partial curve]

## N#CC1(c2ccc(F)cc2)CCC(=O)CC1
[1]
  Potency: inconclusive: 21.1 µM [inhibitor, partial curve]

## Cc1c(C2(c3cc(Br)c(O)c(Br)c3C)OS(=O)(=O)c3ccccc32)cc(Br)c(O)c1Br
[2]
  Potency: active: 10.5 µM
[3]
  Potency: inconclusive: 10.5 µM [inhibitor, full curve, poor fit]
